According to PubChem BioAssay (NCATS):
This is one part of the list. Shown are side measurements of this screen, not its main read-out; they come without a call. Compounds called inactive in the main read-out are mostly missing here. Words in brackets tell the shape of the fitted curve; partial curves, single points and poor fits give uncertain potencies.

Assay: qHTS Assay for Lipid Storage Modulators (AID 1519)
Settings: Drosophila S3 cells, BODIPY lipid droplet/cell ratio, laser cytometry, cells loaded with oleic acid
Outline: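 Cells seeded at 5,000 per well were treated with compounds over a concentration series and loaded with oleic acid (400 uM, as added). Lipid droplet fluorescence (488 nm excitation, 500-530 nm channel) was read by laser-scanning cytometry and normalized to 20 uM Triacsin C.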

[1] = measured here: cell count channel max response
[2] = measured here: cell number channel AC50
[3] = measured here: lipid (BODIPY) channel AC50
[4] = measured here: lipid channel max response
Tags give direction and shape of the fitted curve.

SMILES	max response [1] [%]	AC50 [2]	AC50 [3]	max response [4] [%]
c1cncc(CNc2ccnc(-c3ccc4c(c3)OCO4)n2)c1	25.3	0.0141 µM [rising, full curve]	0.0891 µM [rising, full curve, poor fit]	30.3
CN1CCN(c2ncc3nc(CCc4ccccc4)c(=O)n(Cc4ccc(F)cc4)c3n2)CC1	-0.977	5.01 µM [rising, partial curve, poor fit]	2.24 µM [rising, partial curve, poor fit]	3.73
Cc1c[nH]c(=O)n(CCCN2CCN(c3ccccc3OCC(F)(F)F)CC2)c1=O	67.4	17.8 µM [rising, partial curve, poor fit]	28.2 µM [rising, partial curve, poor fit]	88.1
COc1ccc2c(=O)c(OC)c(-c3ccccc3)oc2c1	8.5	0.0398 µM [rising, full curve, poor fit]	0.0316 µM [rising, full curve]	14.5
O=c1c(CCc2ccccc2)nc2cncnc2n1C1CC1	32.2	0.447 µM [rising, full curve, poor fit]	0.316 µM [rising, full curve]	44.3
COc1cccc(-c2nc(NCc3ccc(OC)cc3OC)c3ccccc3n2)c1	15.5	2.82 µM [rising, single point]	2.82 µM [rising, partial curve, poor fit]	20.5
N#Cc1cccc(-c2nc(NCc3cccs3)c3ccccc3n2)c1	18.8	3.55 µM [rising, partial curve]	4.47 µM [rising, partial curve]	21.6
Cc1cccc(CNc2ccnc(-c3ccc(N(C)C)cc3)n2)c1	-51.4	35.5 µM [falling, single point]	39.8 µM [falling, single point]	-91.6
O=C(O)CC/C=C\CC[C@H]1[C@@H](N2CCCCC2)[C@@H](O)C[C@@H]1OCc1ccc(-c2ccccc2)cc1	88.7	35.5 µM [rising, partial curve, poor fit]	35.5 µM [rising, partial curve, poor fit]	104
COCCn1c(=O)c(-c2ccc(Cl)cc2)nc2cnc(OC)nc21	31.5	0.158 µM [rising, full curve, poor fit]	0.0794 µM [rising, full curve]	46
COc1ccc(-c2nc3cncnc3n(-c3ccccc3)c2=O)cc1	40.2	7.08 µM [rising, partial curve]	5.01 µM [rising, partial curve]	46.9
NC(Cc1cnc[nH]1)C(=O)Nc1ccc2ccccc2c1 (stereo unspecified)	37	2 µM [rising, partial curve, poor fit]	5.01 µM [rising, partial curve, poor fit]	47.3
Cc1cnc(CNc2ccnc(-c3cccc(NS(C)(=O)=O)c3)n2)cn1	31.1	2.51 µM [rising, full curve, poor fit]	1.26 µM [rising, full curve]	35.2
CN(C)C(=O)c1ccc(-c2ccc3ncnc(NC4CC4)c3c2)cc1	17.4	0.0891 µM [rising, full curve]	0.1 µM [rising, full curve]	18.1
CN(C)c1ncc2nc(-c3ccc(Cl)cc3)c(=O)n(CCC#N)c2n1	46.7	5.01 µM [rising, partial curve]	3.16 µM [rising, full curve]	52.9
COc1cc(OC)c2c(c1)OC(c1ccccc1)CC2=O (stereo unspecified)	96.3	4.47 µM [rising, full curve]	4.47 µM [rising, full curve]	130
CN/C(=C\[N+](=O)[O-])NCCSCc1ccc(CN(C)C)o1	-13.6	20 µM [falling, single point]	20 µM [falling, single point]	-20.2
COc1ccc(Oc2ncc3ncc(=O)n(Cc4ccc(F)cc4)c3n2)cc1	15.5	0.891 µM [rising, full curve]	0.708 µM [rising, full curve]	21.9
Nc1ncnc2c1ncn2C1CC(O)C(CO)O1 (stereo unspecified)	-47.2	25.1 µM [falling, partial curve, poor fit]	28.2 µM [falling, partial curve, poor fit]	-64.5
COc1ccc(C(=O)N2CCC[C@@]3(CCN(Cc4nccs4)C3)C2)cc1	15.5	6.31 µM [rising, partial curve, poor fit]	1.78 µM [rising, partial curve, poor fit]	20.1

SMILES	max response [1] [%]	AC50 [2]	AC50 [3]	max response [4] [%]
COc1cccc(Cn2c(=O)c(-c3ccc(Cl)cc3)nc3cnc(OC)nc32)c1	26	2.51 µM [rising, full curve, poor fit]	1.41 µM [rising, full curve, poor fit]	33.3
C=CCN1CCN(c2nc3ccccc3nc2C#N)CC1	113	15.8 µM [rising, partial curve]	17.8 µM [rising, partial curve]	153
COc1ccc(NC(=O)N2CC3(CCN(S(=O)(=O)c4ccccc4)CC3)C2)cc1	84.5	39.8 µM [rising, single point]	22.4 µM [falling, single point]	-32.3
COc1cccc(-c2cc(NCc3ccccc3)ncn2)c1	21.8	3.98 µM [rising, partial curve]	3.55 µM [rising, partial curve, poor fit]	18.3
NC(N)=NC(N)=Nc1ccccc1	-59.2	12.6 µM [falling, partial curve, poor fit]	12.6 µM [falling, partial curve, poor fit]	-65.1
CCCCCCCCCCCCCCCC[N+](C)(C)CCN(Cc1ccc(OC)cc1)c1ncccn1	-52.2	15.8 µM [falling, single point]	15.8 µM [falling, partial curve, poor fit]	-95.8
CCNc1ncc2nc(CCc3ccccc3)c(=O)n(-c3ccc(OC)cc3)c2n1	28	0.0158 µM [rising, full curve, poor fit]	0.562 µM [rising, full curve, poor fit]	41.2
COc1cccc(-c2nc(NCc3cnc(C)cn3)c3ccccc3n2)c1	27.7	0.501 µM [rising, partial curve, poor fit]	2.24 µM [rising, full curve]	40.3
O=c1c(-c2ccccc2)nc2cncnc2n1C1CC1	25.3	2.82 µM [rising, full curve, poor fit]	1.12 µM [rising, partial curve, poor fit]	31.2
O=c1c(-c2ccc(F)c(F)c2)nc2cncnc2n1Cc1ccccc1	20.4	0.0708 µM [rising, full curve, poor fit]	0.0631 µM [rising, full curve]	30
COC(=O)N1CCC[C@@]2(CCN(c3ncccn3)C2)C1	24.6	0.794 µM [rising, full curve, poor fit]	0.316 µM [rising, full curve, poor fit]	37.9
Clc1ccccc1-c1ccc2ncnc(NCCN3CCOCC3)c2c1	11.7	3.98 µM [rising, single point]	3.98 µM [rising, single point]	5.52
CCCCCCCCCCCCC/C=C\[C@@H](O)[C@@H](N)CO	-11.8	0.224 µM [falling, partial curve, poor fit]	10 µM [falling, partial curve, poor fit]	-45.5
CN(Cc1ccco1)c1ccnc(-c2cccnc2)n1	39	6.31 µM [rising, full curve]	4.47 µM [rising, full curve]	45.2
c1csc(CNc2nc(-c3ccc4c(c3)OCO4)nc3ccccc23)c1	22.9	0.141 µM [rising, full curve]	0.2 µM [rising, full curve]	28.8
c1csc(CNc2nc(-c3ccoc3)nc3ccccc23)c1	15.3	0.316 µM [rising, full curve, poor fit]	0.447 µM [rising, full curve]	20.6
CN(Cc1ccco1)c1ccnc(-c2ccccc2C(F)(F)F)n1	36.3	11.2 µM [rising, partial curve]	8.91 µM [rising, partial curve, poor fit]	42.2
COc1cc(/C=C\C(=O)N2CCC=CC2=O)cc(OC)c1OC	-58.5	15.8 µM [falling, single point]	14.1 µM [falling, partial curve, poor fit]	-91.6
COCCn1c(=O)c(-c2ccc(F)cc2)nc2cncnc21	35	2.51 µM [rising, full curve]	1.12 µM [rising, full curve]	49.3
